# Source: PubChem BioAssay AID485344 (National Center for Advancing Translational Sciences (NCATS), 2010)
# About 6,900 (2%) of roughly 340,000 compounds were called active. No stated cut-off is given here; in the data, active means inhibition above about 30%; inactive means below that, where a call was filed. The list shows a part of the results, in another mix than the full data. The source gives no active or inactive call for entries shown without one.
# Biological target: D(2) dopamine receptor (Homo sapiens) (UniProt P14416)
# Assay: HTS Assay for Allosteric Antagonists of the Human D2 Dopamine Receptor: Primary Screen for Antagonists; further: 0% is about no effect
# Conditions: HEK293 TREx D2 cells, calcium flux, dopamine EC80; at 10 µM; stronger effect = higher value
# Method in brief: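 Antagonism is scored as inhibition of an EC80 dopamine-evoked calcium signal in a force-coupled, tetracycline-inducible HEK293 T-REx D2 line, with compound present 180 s before agonist.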
# UniProt P14416, sequence (P14416 whole entry, looked up): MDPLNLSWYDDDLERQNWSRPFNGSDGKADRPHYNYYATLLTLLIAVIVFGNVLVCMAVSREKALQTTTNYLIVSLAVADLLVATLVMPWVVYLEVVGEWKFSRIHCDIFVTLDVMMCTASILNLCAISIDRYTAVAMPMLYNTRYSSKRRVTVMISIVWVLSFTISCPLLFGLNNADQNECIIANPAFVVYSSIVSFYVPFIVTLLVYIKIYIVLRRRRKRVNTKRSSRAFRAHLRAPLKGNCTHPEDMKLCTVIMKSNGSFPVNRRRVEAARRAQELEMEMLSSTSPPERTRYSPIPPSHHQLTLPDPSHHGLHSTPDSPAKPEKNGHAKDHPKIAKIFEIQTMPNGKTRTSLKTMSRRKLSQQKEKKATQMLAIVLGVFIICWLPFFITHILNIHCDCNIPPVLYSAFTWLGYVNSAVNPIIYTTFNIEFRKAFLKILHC
row,SMILES,inhibition
1,Cc1c(C(=O)N2CCCC2)oc2c1-c1nn(CC(=O)NC(C)c3ccccc3)cc1CC2 (stereo unspecified),3.16%
2,CCC(C(=O)Nc1cc(OC)ccc1OC)n1c(C)c2cnn(-c3ccccc3)c(=O)c2c1C (stereo unspecified),10.4%
3,COc1ccc(-n2ccn(CC(=O)NCc3ccc(C)cc3)c(=O)c2=O)cc1OC,9.64%
4,Cc1cc(F)ccc1NC(=O)c1ccc2nc(Cc3ccccc3)oc2c1,-20.9%
5,Cc1ccc(S(=O)(=O)NCCc2nnc3ccc(SCc4ccc(F)cc4)nn23)cc1,14.2%
6,CCCn1c2ccccc2c2cnn(CC(=O)N(Cc3ccccc3)C(C)C)c(=O)c21,-7.5%
7,CCCOc1ccc(-c2nc(N3CCC(C)CC3)c3ccccc3n2)cc1,9.62%
8,CC(=O)NC12CC3CC(C1)CC(C(=O)N1CCN(S(=O)(=O)c4ccccc4[N+](=O)[O-])CC1)(C3)C2,active: 44.6%
9,N#CCCn1cc(/C=N/N=C2\NC(=O)C(CC(=O)O)S2)c(-c2ccc(F)cc2)n1 (stereo unspecified),active: 35.1%
10,O=C(Nc1ccc(F)cc1)NC1CCN(Cc2ccccc2)CC1,active: 52.9%
11,Cc1oc(-c2ccc(Cl)cc2)cc1C(=O)NC1CCN(Cc2ccccc2)CC1,active: 58.1%
12,CCCCOc1ccc(S(=O)(=O)NCc2csc(-c3ccc(OC)cc3)n2)cc1,3.56%
13,COc1ccc(-c2noc(N3CCC(C(=O)N(C)c4cc(Cl)ccc4OC)CC3)n2)cc1,-10.9%
14,CCOc1cc2[nH]c(=O)n(CCCCC(=O)N3CCN(c4ccccc4)CC3)c(=O)c2cc1OCC,6.19%
15,CCC(C)NC(=O)c1[nH]c2cc(C)ccc2c1Sc1ccc(Cl)cc1 (stereo unspecified),16.1%
16,COc1ccc(CCNC(=O)CCc2cn(Cc3ccc(C)cc3)c3ccccc23)c(OC)c1OC,-13.8%
17,Cc1cccc(C)c1OCC(=O)Nc1c(C(=O)c2ccc(Br)cc2)oc2ccccc12,4.38%
18,Cc1cccc(N2CCN(C(=O)C3CCN(S(=O)(=O)c4c(C)noc4C)CC3)CC2)c1C,-20.9%
19,O=C(CN1C(=O)COc2ccc(S(=O)(=O)N3CCCCCC3)cc21)N1CCN(c2cccc(C(F)(F)F)c2)CC1,13%
20,COc1ccc2oc(=O)c(-c3cn4c(n3)sc3cc(F)ccc34)cc2c1,-10.4%
21,CCC1=Nc2cc(C(=O)NCc3ccc(C)cc3)ccc2Sc2ccc(C)cc21,12.2%
22,CCCCN(C)CCCNC(=O)c1cc(-c2cccnc2)nc2ccccc12,5.28%
23,COc1ccc(-c2oc3ncn4nc(COc5ccccc5C)nc4c3c2-c2ccc(OC)cc2)cc1,1.76%

row,SMILES,inhibition
1,COC(=O)c1ccc(OC)c(Cn2c(=O)n(-c3cccc(Cl)c3)c(=O)c3c4c(sc32)CN(C(C)=O)CC4)c1,-15.4%
2,Nc1nc(CN2CCN(c3cccc(Cl)c3)CC2)nc(N2CCCc3ccccc32)n1,active: 70.4%
3,CCOC(=O)C1CCCN(C(=O)Cn2ncn3c(cc4sc(CC)cc43)c2=O)C1 (stereo unspecified),-14.6%
4,O=C(Nc1ccc(F)cc1)[C@@H](c1ccccc1)N1Cc2ccccc2C1=O,-12%
5,COc1cc(OC)c(NC(=O)Cc2ccc(-n3c(C)nc4cccnc43)cc2)cc1Cl,2.16%
6,Cc1ccc(C)c(NC(=O)CCc2c(C)nn(-c3ccc(N4CCCC4)nn3)c2C)c1,-0.652%
7,COc1ccc(NC(=O)CSc2nc(-c3ccc(F)cc3)c3cccc(C)c3n2)cc1,8.14%
8,CCOc1ccc(CCNC(=O)c2ccc(-c3nc(COc4ccc(C)cc4)c(C)o3)cc2)cc1,9.8%
9,Cc1ccc2nc(CN3CCN(C(=O)Nc4ccc(C)c(F)c4)CC3)oc2c1,9.72%
10,COc1ccc(C2C(=O)N(C3CCCCCC3)CC(=O)N2CCc2ccc(OC)c(OC)c2)cc1 (stereo unspecified),-12.3%
11,COc1ccc(CCNC(=O)c2ccc(Cn3c(=O)c4ccccc4n(Cc4ccc(C)cc4)c3=O)cc2)cc1OC,-24.7%
12,COCCCn1c(SCC(=O)Nc2ccccc2OC)nc2c(sc3ccccc32)c1=O,4.55%
13,Cc1ccc(NC(=O)C(=O)NCC(c2ccc3c(c2)OCO3)N2CCN(c3ccccc3)CC2)cc1 (stereo unspecified),-16.5%
14,O=C(c1cccs1)c1cn(CCOc2ccccc2Cl)c2ccccc12,8.11%
15,CCN(C(=O)C(Cc1ccccc1)NS(=O)(=O)c1cccc2nsnc12)c1ccccc1 (stereo unspecified),8.23%
16,COc1ccc(NC(=O)Cn2c(=O)n(-c3ccc(OC)cc3)c(=O)c3ccc(C(=O)NCc4ccc(C)cc4)cc32)cc1,-11.3%
17,COc1cc(C(=O)NCCc2csc3nc(-c4ccccc4C)nn23)cc(OC)c1OC,-12.7%
18,CC(C)c1ccc(NC(=O)CC2Oc3ccccc3NC2=O)cc1 (stereo unspecified),-7.29%
19,COc1ccccc1CCNC(=O)CCc1c(C)c2cc3c(C)c(C)oc3cc2oc1=O,20.8%
20,Cc1ccc(Cl)cc1NC(=O)CN1C(=O)COc2ccc(S(=O)(=O)N3CCCCCC3)cc21,0.552%
21,COc1cc(C(=O)Nc2c(C(=O)O)[nH]c3ccc(C)cc23)cc(OC)c1OC,active: 34.3%
22,O=c1c2ccccc2nc(-c2ccc(Cl)cc2)n1CCCOc1ccccc1F,-7.22%
23,Cc1ccc2c(c1)c(=O)c(Br)c(C)n2Cc1ccccc1,active: 56.3%
